The list shows a part of the results.
B1: chr11:62841694:62841860:-|5pUTR|ENSG00000133316|unk|total|mutant (ssRNA)
RNA: GGGAGUUCUACAGUCCGACGAUCGCCGCCGAGGCGACCGAAGUAAAGGUAUCGCUUCUCGGCCUUUUGGCUAAGAUCAAGUGCCGUAUCUGUUCUUAUCAGUUUAAUAUCUGAUACGUCCUCUAUCCGAGGACAAUAUAUUAACAACAGAGGAUUGAGCAUCA
B2: chr19:48382969:48383148:-|3pUTR|ENSG00000105438|msi1_unk|total|mutant (ssRNA)
RNA: GGGAGUUCUACAGUCCGACGAUCACUUGGGCUGUUUGCCGUUUUUUGCCUUUCCGACAAGAAAAAAAAAUCUUUCCACUCUUCCGUUUUUGAUUCUGAUGACUCGUUUUUCUUCUACUCUGUGGCCCCAAUUUUUAUAAAGUGCAACAGAGGAUUGAGCAUCA
B3: chr12:24812190:24812291:-|3pUTR|ENSG00000060982|msi1|total|mutant (ssRNA)
RNA: GGGAGUUCUACAGUCCGACGAUCUUUACUAUCUCCUAUCCUGACCGGUGGAAGGUUUACUGAAUUGGAAAUUGGUUGACUAUCCGUUUUUAACUAAAAUGUGCAAUAACACAUUGCAGUUUCCUCAAACCCGUUUCCUAUGAUCAACAGAGGAUUGAGCAUCA
B4: chr6:136278143:136278257:-|CDS|ENSG00000029363|unk|FALSE|unique (ssRNA)
RNA: GGGAGUUCUACAGUCCGACGAUCACAUCCGGUGAUAUUUGGCCUGGCCUUUCAGCUUAUGAUAAUAGUCCUAGAUCACCCCAUAGUCCUUCACCUAUUGCUACACCACCUAGUCAGAGUUCAUCUUGCUCUGAUGCUCCCAUGCAACAGAGGAUUGAGCAUCA
B5: chr1:94529602:94529703:-|3pUTR|ENSG00000117525|msi1|total|mutant (ssRNA)
RNA: GGGAGUUCUACAGUCCGACGAUCUGGAAGGAAAUUGGGUGCAUUUCCCGGACUUUUCUAACAUAUGUCUAUAAUACCGUGUUCCGGUUCUUUUUUUUUUCAGGAAUACAUUUGGAAAUUCAAAACAAUUGGCAAACUUUGUAUCAACAGAGGAUUGAGCAUCA
B6: chr6:122456482:122456612:-|CDS|ENSG00000111897|unk|total|mutant (ssRNA)
RNA: GGGAGUUCUACAGUCCGACGAUCUGCUUUGGUUUGGCUAUGUUCUAUCUUCUUCUCUCUUUACUAAUGAUCAAAGUGAAGAGCCGCAGUGAUCCCCGAGCUGCAGUGCACAAUGGGUAAGUUUUUAAAUAAGCUUCAAUAUAACAACAGAGGAUUGAGCAUCA
B7: chr4:140550230:140550341:+|CDS|ENSG00000179387|unk|total|mutant (ssRNA)
RNA: GGGAGUUCUACAGUCCGACGAUCGAAUUUGACAAGUUUUGGUUUGAAGAAGAACCAGAAAGCAUUAUGUAUUUCAAUUUGUACCGAGAGAAGUUUCAUGAAAAGAUUAAAGGACUUUUACUGGAUUGUAAUGCCGCACUUACUCAACAGAGGAUUGAGCAUCA
B8: chrX:131089436:131089558:+|3pUTR|ENSG00000147256|unk|FALSE|unique (ssRNA)
RNA: GGGAGUUCUACAGUCCGACGAUCGGGAAACCUCAAGUGUAGGUCUAAUUAGUGUUUCUGGGAUCCAAAGUUAGAGGAAAAUUUAGAUUUUAUUGCCUGGAUCUGCUUUAAAGACAAUUGGUGUUUACACCCUCUUGUCAGCAACAACAGAGGAUUGAGCAUCA
B9: ENSG00000136451:be:win_51|CDS|ENSG00000136451|bound_else_gene|NA|bound_elsewhere_windowed (ssRNA)
RNA: GGGAGUUCUACAGUCCGACGAUCUCACCAACAGCAGGCAGCACAGAACAGCUUGCUGCCCCUCCUGAGCUCUGCCGUGGAGCCCCCUGAUCAGAAACCAUUGCUUCCAAUACCAAUAACUCAGAAACCUCAGGGUGCACCAGACAACAGAGGAUUGAGCAUCA
B10: ENSG00000198589:be:win_751|CDS|ENSG00000198589|bound_else_gene|NA|bound_elsewhere_windowed (ssRNA)
RNA: GGGAGUUCUACAGUCCGACGAUCAAACCAUAUUUGUAUUGUUUCAGAACCAGCAAAGGUCUUGGCUAUUCUGCUCAUUUUGUUGGAGGCUGUUUGAUUGUAACAUCAAUAAAGUCAAAAGGAAAAGGCUUUCAACACUGUGUGCAACAGAGGAUUGAGCAUCA
B11: chr4:186618492:186618593:-|CDS|ENSG00000083857|msi1|FALSE|unique (ssRNA)
RNA: GGGAGUUCUACAGUCCGACGAUCGUAAUCACUACAAAGGAGAGCCUCAUUGGCUUGGAAAAUGAAUUCUUCACUUUCUUUGUUAGAGCUGUGGAUAAUGGGUCUCCAUCAAAAGAAUCUGUUGUUCUUGUCUAUGUUAAAAUCCAACAGAGGAUUGAGCAUCA
B12: chr3:9757346:9757621:-|three_prime_utr|ENSG00000134072|control|control|control (ssRNA)
RNA: GGGAGUUCUACAGUCCGACGAUCGUCGAGACUGCUGCGUGGAGCCGGGCACAGAACUGUCCCCCACACUGCCCCACCAGCUCUAGGGCCCUGGACCUCGGGUCAUGAUCCUCUGCGUGGGAGGGCUUGGGGGCAGCCUGCUCCCAACAGAGGAUUGAGCAUCA
B13: chr12:48147896:48148005:-|3pUTR|ENSG00000177981|unk|total|mutant (ssRNA)
RNA: GGGAGUUCUACAGUCCGACGAUCCUGCUUCCGUGAACGAUACUCUUUCAUUUUUCUAAAUCCGAUCAAGUUGUUAUUGAUUUCCGAUGACUUGUAUGCAAAUUUGAAAAACUUUUUUUUUUAAAGCUGAUUGGGAACUACAAACAACAGAGGAUUGAGCAUCA
B14: chr6:122453778:122453910:-|CDS|ENSG00000111897|unk|total|mutant (ssRNA)
RNA: GGGAGUUCUACAGUCCGACGAUCCCUUUCAGUGUGGUUUUAUGCCGGCAUGGCAGGUGCCUUUUGUUUCAUCCUCAUACAACCCGUCUUACUUAUUGAUUUUGCACAUUCAUGGAAUGAAUCGUGGGUUGAAAAAAUGGAAGACAACAGAGGAUUGAGCAUCA
B15: ENSG00000135709:stop:overlap|stop_codon|ENSG00000135709|stop_codon|NA|stop_codon (ssRNA)
RNA: GGGAGUUCUACAGUCCGACGAUCACCUGGAUGAAGAGCAAUACAAGCUGCUUAGUGACCACAUUGAGCAAAUGGCCACUGAGUAGGCCCCAGAGGUCGCACUCCGCAGGAGGACUGAGGCCAUGUGCCAUUCUCCCGGGCCCACAACAGAGGAUUGAGCAUCA
B16: chr1:113590523:113590624:+|CDS|ENSG00000081026|unk|total|mutant (ssRNA)
RNA: GGGAGUUCUACAGUCCGACGAUCUCAUCUGACUGGAUGAAGACUGUUCCAAGUUACAACCAAACAAACCGCUCCAUGGACUUCCGAAAUUAUAUGAUGAGAGAUGAGACUCUGGAACCACUGCCCAAAAACUGGGAAAUGGCCCAACAGAGGAUUGAGCAUCA
B17: chr1:86742159:86742388:+|CDS|ENSG00000097033|unk|total|mutant (ssRNA)
RNA: GGGAGUUCUACAGUCCGACGAUCUGUACCAUCAGUUUUACCAAAUGCGAUUGGUUCUUCUGCCAUGGCUUCAACAAGUGGCCCCGUAAUCACCUCUCCUUCCAACCUCAGUGACCUUAAGGAGUGCCGUGGCAGCAGAAAGGCCAACAGAGGAUUGAGCAUCA
B18: chr15:89832191:89832292:-|3pUTR|ENSG00000157823|msi1|total|mutant (ssRNA)
RNA: GGGAGUUCUACAGUCCGACGAUCCCCGGCCGCUGGAACCACAGGCACGCAACCACCACUCCUGGCCCGUUUUAUUUUUUCCGCCGAAUAAGGUCUCACUAUGUUGCACAGGCUGGUCUCUAACUCCUUACCUCAAGCCAUCCUCAACAGAGGAUUGAGCAUCA
B19: chr8:143040838:143043334:-|three_prime_utr|ENSG00000291309|control|control|control (ssRNA)
RNA: GGGAGUUCUACAGUCCGACGAUCACCACUUUUUUCAGAGCUGGGCCUCAGAGACCAGGCCCCACCACUGGCUGCUUGGGACCUAGGGUCAUAGAGAAACCGUGGCCCAGGGCGGGAGUCCCCAGCUCCAUCCAGCUUGCCACUCAACAGAGGAUUGAGCAUCA
B20: chr15:41517175:41517691:-|three_prime_utr|ENSG00000103932|control|control|control (ssRNA)
RNA: GGGAGUUCUACAGUCCGACGAUCGUCAGCACUACCUCCAGAGACUGACUUCAACAGUGCUCCAAAAUGGGGUAUCAGAGACCUAGGAUAGUUGAUAUAGAUGGAAAGAUGGGUACGUUGUCCUGUAUCCAGCCUUUCAACAGACAACAGAGGAUUGAGCAUCA
B21: chr11:20121310:20121411:+|3pUTR|ENSG00000166833|msi1|total|mutant (ssRNA)
RNA: GGGAGUUCUACAGUCCGACGAUCAUUGUAACACCGAAAUUGUAAAUAAUUGAUUAAAGUGCUGCAUUUUGAUGAAUUUUUUCCCGCCAUUUUUAAAGAGAAAACCCGGAAUUGAGUAUUUUGUGUACGGUAUGUUUCCAUCCUCAACAGAGGAUUGAGCAUCA
B22: chr22:45344062:45344555:-|three_prime_utr|ENSG00000077935|control|control|control (ssRNA)
RNA: GGGAGUUCUACAGUCCGACGAUCUCCACAGGAGACUUCUGGAGCAAGCAGGACCAGCCUGGUGCACCCUUUAAGAGAAACCUUAGUCGUUCUAGCCAAAGAGGCUGUGGCUCACUUUAGUUGAGUGUUCAGACCUCAUUCUAGCAACAGAGGAUUGAGCAUCA

Each binder was assayed against MSI1 full-length (mouse, UniProt Q61474 1-362) (assay: nsRBNS (natural sequence RNA bind-n-seq); RBNS binding buffer (assumed for nsRBNS): 25 mM Tris pH 7.5, 150 mM KCl, 3 mM MgCl2, 0.01% Triton X-100, 500 ug/ml BSA, 20 U/ml SUPERase-In, 4 C; UNK is unkempt and MSI1 is Musashi-1; names of the RNAs are library labels; protein concentration not given here; high values mean tight binding).
UniProt Q61474, sequence (Q61474 whole entry): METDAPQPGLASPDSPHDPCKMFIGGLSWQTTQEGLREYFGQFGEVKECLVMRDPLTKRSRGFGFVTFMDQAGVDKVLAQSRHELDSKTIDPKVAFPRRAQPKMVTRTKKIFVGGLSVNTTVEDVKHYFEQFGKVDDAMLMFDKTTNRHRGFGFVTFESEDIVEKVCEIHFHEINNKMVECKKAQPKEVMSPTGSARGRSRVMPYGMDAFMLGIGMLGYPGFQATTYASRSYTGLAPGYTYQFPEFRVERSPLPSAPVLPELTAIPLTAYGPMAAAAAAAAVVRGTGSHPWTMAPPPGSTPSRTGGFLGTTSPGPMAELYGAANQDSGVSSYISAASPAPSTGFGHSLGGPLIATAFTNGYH

Row | Binder | binding signal
1 | B1 | 0.194 enrichment R
2 | B2 | 0.578 enrichment R
3 | B3 | 0.209 enrichment R
4 | B4 | 2.36 enrichment R
5 | B5 | 0.407 enrichment R
6 | B6 | 0.389 enrichment R
7 | B7 | 0.361 enrichment R
8 | B8 | 20.8 enrichment R
9 | B9 | 0.553 enrichment R
10 | B10 | 0.279 enrichment R
11 | B11 | 0.429 enrichment R
12 | B12 | 0.642 enrichment R
13 | B13 | 0.282 enrichment R
14 | B14 | 0.257 enrichment R
15 | B15 | 0.455 enrichment R
16 | B16 | 0.335 enrichment R
17 | B17 | 0.35 enrichment R
18 | B18 | 0.746 enrichment R
19 | B19 | 0.475 enrichment R
20 | B20 | 2.92 enrichment R
21 | B21 | 0.869 enrichment R
22 | B22 | 1.32 enrichment R

Source: PMC12136788
